Screen size: about 320,000 compounds; about 200 (0.062%) were called active. The inconclusive results got no clear call from the source; some entries with a clear call stand among them for comparison. Calls follow the shape of the dose curve; as a rule, active = well fitted activation curve with a large enough effect; inconclusive = small, poorly fitted or top-dose-only effect; inactive = no such curve, though single readings can be large or run the other way. No potency is given beside an inconclusive call; the fits are too rough.
assay: qHTS assay for re-activators of p53 using a Luc reporter; conditions: H1299 p53-A138V BP100-luciferase reporter, luminescence, 24 h; series mostly up to 92.2 µM; activity change, positive = activation: at the top concentration; also: nearly all actives have a fitted effect of over 45% in size; as to activity change, positive = activation: % of control where 0% means no effect
Procedure, shortened: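 H1299 (p53-null), stable ts p53-A138V + BP100-Luc; 1000 cells/well, Opti-MEM/10% FBS; cpd 4 pt, 1:5; 24 h, 37 deg C, 5% CO2; detection reagent 10 min RT; luminescence.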
Potency is read from the fitted curve at half-maximal effect; tags tell the direction and shape of the fitted curve.

| Structure (SMILES) | Potency | activity change, positive = activation |
| --- | --- | --- |
| CCN(CC(=O)Nc1c(F)cccc1F)C(=O)C1COc2ccccc2O1 (stereo not given) | inconclusive [activator, single point] | – |
| O=C(Nc1ccccc1)c1ccc(-c2ccccc2C(F)(F)F)o1 | inconclusive [activator, partial curve, poor fit] | – |
| Cc1cc(C)nc(NC(=O)/C=C/c2ccccc2Cl)n1 | inconclusive [activator, full curve, poor fit] | – |
| CCC(NC(=O)CCl)c1ccc(C)cc1 (stereo not given) | – | inactive: -11.6% |
| CCOC(=O)c1c(NC(=O)CN2C(=O)c3ccccc3C2=O)sc(Cc2ccc3c(c2)OCO3)c1C | – | inactive: 0.137% |
| CN(CCC#N)c1ccc(/C=C(\C#N)c2ccccn2)cc1 | inconclusive [activator, full curve, poor fit] | – |
| O=C(Nc1ccc(Cl)c(Cl)c1)Nc1ccc(Br)cc1F | inconclusive [activator, partial curve, poor fit] | – |
| COc1ccc2c(c1)CCc1c(C(=O)NCc3cccnc3)noc1-2 | inconclusive [activator, partial curve, poor fit] | – |
| Brc1ccc2nc(N3CCCC3)sc2c1 | inconclusive [activator, partial curve, poor fit] | – |
| CC1CCN(C(=O)CCCOc2ccc(Cl)cc2)CC1 | inconclusive [activator, partial curve, poor fit] | – |
| Cc1cc(C(=O)Nc2nc(C)c(C(=O)N(C)C)s2)ccc1[N+](=O)[O-] | inconclusive [activator, partial curve, poor fit] | – |
| Cc1ccc(/C=C2\SC(=O)N(CCC(=O)N3CCN(C)CC3)C2=O)cc1 | inconclusive [activator, full curve, poor fit] | – |
| Cc1ccc(NC(=O)COC(=O)c2ccc(S(=O)(=O)N3CCCC3)cc2)cc1 | – | inactive: -2.63% |
| O=C1NCCN/C1=C\C(=O)c1ccc(Br)cc1 | – | inactive: 27.3% |
| Cc1nc(SCC(=O)O)c2oc3ccccc3c2n1 | – | inactive: -0.676% |
| Cc1ccn2cc(CSc3ccccc3)nc2c1 | inconclusive [activator, partial curve, poor fit] | – |
| CC(=O)NCc1ccc(-c2csc(NC(=O)CCc3nc4ccccc4c(=O)[nH]3)n2)s1 | – | inactive: -2.91% |
| O=C(c1ccc(N2CCCCC2)c([N+](=O)[O-])c1)N(Cc1ccccc1)c1ccccn1 | – | inactive: -0.615% |
| CC(=O)Oc1ccc(Oc2ccc(-c3noc(C)n3)cc2)cc1 | inconclusive [activator, single point] | – |
| COc1ccc(OC)c2sc(N3CCc4ccccc4C3)nc12 | – | inactive: -2.11% |
